PubChem BioAssay AID1794844 (National Center for Advancing Translational Sciences (NCATS), 2023)
Screen size: about 2,800 compounds; fewer than 10 were called active. Inconclusive results, whose numbers are uncertain, are shown with a selection of clear calls. Calls follow the shape of the dose curve; as a rule, active = well fitted inhibition curve with a large enough effect; inconclusive = small, poorly fitted or top-dose-only effect; inactive = no such curve, though single readings can be large or run the other way. A potency beside an inconclusive call is a rough fit, not a confirmed value.
For activity, negative = inhibition in this document: % of control where 0% means no effect.
Potency is read from the fitted curve at half-maximal effect; tags tell the direction and shape of the fitted curve.

The compounds below were run against Metallo-beta-lactamase type 2 (Klebsiella pneumoniae) (UniProt C7C422) (assay: qHTS to identify inhibitors of the New Delhi Metallo-beta-lactamase (NDM): Nitrocefin screen against the machine-based learning selections.). Conditions: NDM-1 enzyme, nitrocefin hydrolysis, absorbance 485 nm; activity, negative = inhibition: at 38.4 µM (top of the series) unless noted.
Sequence of UniProt C7C422 (C7C422 whole entry, looked up): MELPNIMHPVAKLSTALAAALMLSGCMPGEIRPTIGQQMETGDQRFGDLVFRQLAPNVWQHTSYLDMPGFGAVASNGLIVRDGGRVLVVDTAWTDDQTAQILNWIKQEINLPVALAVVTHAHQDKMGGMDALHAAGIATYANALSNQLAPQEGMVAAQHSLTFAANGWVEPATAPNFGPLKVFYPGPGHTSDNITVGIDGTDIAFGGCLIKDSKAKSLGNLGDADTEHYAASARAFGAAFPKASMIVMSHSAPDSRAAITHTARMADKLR
Summary of the method: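 Hydrolysis by 2 nM NDM-1 was followed by absorbance after >30 min compound preincubation in HEPES pH 7.0 buffer with 1 uM Zn2SO4. For nitrocefin (16.7 uM, 15 min, 485 nm) and meropenem (50 uM, 30 min, 300 nm), each substrate ran on separate plates.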
In the case of `Cc1cnc(C(=O)N2CCCC(c3nc(-c4cccnc4)no3)CCNC(=O)CC2)cn1` (stereo not drawn), the “activity, negative = inhibition” value is reported as inactive: -3.61%. With `O=C1C(c2ccccc2)CC2(CCN(c3cnccn3)CC2)CN1C1CC1` (stereo not drawn) the “activity, negative = inhibition” value was inactive: 0.213%. With `O=C(NCCc1nc(-c2cccnc2)n[nH]1)C1CNCCO1` (stereo not drawn) the Potency was inconclusive: 16.8 µM [inhibitor, partial curve, poor fit]. For `COc1ccc(-c2cc(-c3ccccc3O)cn3cncc23)cc1`, the Potency was inconclusive: 43.3 µM [inhibitor, single point]. In the case of `c1cncc(-c2cnc([C@@H]3COCCN3Cc3ncc[nH]3)[nH]2)c1`, the “activity, negative = inhibition” value is reported as inactive: -25.1% [at 57.5 µM]. In the case of `Clc1ccccc1C1(c2ccnc(NCCn3cccn3)n2)CCNCC1`, the Potency is reported as inconclusive: 15 µM [inhibitor, partial curve]. For `COC(=O)[C@@H](C)NC(=O)[C@H]1CN(C(=O)c2cccnc2)CCN1S(C)(=O)=O`, the “activity, negative = inhibition” value was inactive: 0.882% [at 57.5 µM]. With `CN(C)C[C@H]1O[C@@H](CO)[C@@H](O)[C@H]1N1CCN(c2ccc(F)cc2)CC1` the Potency was inconclusive: 16.8 µM [inhibitor, partial curve]. For `O=S(=O)(NC[C@H]1O[C@@H](CO)[C@@H](O)[C@H]1N1CCN(c2ccc(F)cc2)CC1)c1ccc(F)cc1`, the Potency was inconclusive: 11.9 µM [inhibitor, partial curve]. `COC(=O)c1ccc2nc(C[C@@H]3C[C@@H](C(C)C)[C@H](CNC(=O)CC4(CC(=O)O)CCCC4)C=C3C)[nH]c2c1` was tested, and the Potency was inconclusive: 13.4 µM [inhibitor, partial curve]. With `O=C(c1ccc(C2CCCN2)s1)N1CCc2nc[nH]c2C1` (stereo not drawn) the Potency was inconclusive: 21.2 µM [inhibitor, single point]. With `COCc1nc(C2CC(N)C2)cc(N2CCC(Cn3cccn3)CC2)n1` (stereo not drawn) the Potency was inconclusive: 23.7 µM [inhibitor, partial curve]. `O=C(CCC[C@H]1NC[C@@H]2CC1CN(Cc1ccccc1)C2)N1CCOCC1` was tested, and the Potency was inconclusive: 11.9 µM [inhibitor, partial curve]. In the case of `Cc1cnn(Cc2cc(C(=O)N3CCCCCC3c3nnc(-c4ccccc4)o3)no2)c1` (stereo not drawn), the “activity, negative = inhibition” value is reported as inactive: -2.52%. `CCCN1CC2(CCN(Cc3cn[nH]c3C(=O)O)CC2)CC1C(=O)O` (stereo not drawn) was tested, and the Potency was inconclusive: 7.51 µM [inhibitor, partial curve, poor fit]. `CC(NC(=O)c1ccc2cccc(F)c2n1)c1ccccc1-n1cccn1` (stereo not drawn) was tested, and the Potency was inconclusive: 18.9 µM [inhibitor, partial curve]. With `CC(C)C[C@@H]1N[C@H](C(=O)O)Cc2cn(CC3CC3)c3cccc1c23` the Potency was inconclusive: 5.45 µM [inhibitor, full curve]. For `Clc1ccccc1C1(c2ccnc(NCCc3cccnc3)n2)CCNCC1`, the Potency was inconclusive: 7.51 µM [inhibitor, full curve, poor fit].
